Experimental data taken from article PMC12136788.
The other results are listed elsewhere or left out.

T1: UNK ZnF1-6 (called full-length) (human, UniProt Q9C0B0 30-357)
T1 sequence: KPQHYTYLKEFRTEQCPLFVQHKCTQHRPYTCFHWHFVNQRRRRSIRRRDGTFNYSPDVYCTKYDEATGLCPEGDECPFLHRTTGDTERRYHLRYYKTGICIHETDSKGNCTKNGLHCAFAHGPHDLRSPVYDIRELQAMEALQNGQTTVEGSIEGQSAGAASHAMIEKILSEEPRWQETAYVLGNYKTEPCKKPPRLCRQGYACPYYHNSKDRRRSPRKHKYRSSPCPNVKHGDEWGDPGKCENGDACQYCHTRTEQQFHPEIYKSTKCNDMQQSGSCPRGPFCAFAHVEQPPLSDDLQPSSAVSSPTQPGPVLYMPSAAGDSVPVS

B1: chr14:103503186:103503248:+|CDS_3pUTR|ENSG00000075413|msi1_unk|FALSE|overlapping (ssRNA)
RNA: GGGAGUUCUACAGUCCGACGAUCUGCUUCCAAAAUUGCCAAUGAGCUAAAGCUGUAACCCAGUGAUUAUGAUGUAAAUUAAGUAGCAAUUAAAGUGUUUUCCUGAACACUGAUGGAAAUGUAUAGAAUAAUAUUUAGGCAAUACAACAGAGGAUUGAGCAUCA
B2: chr15:44524374:44524475:+|3pUTR|ENSG00000137770|msi1|total|mutant (ssRNA)
RNA: GGGAGUUCUACAGUCCGACGAUCUAUCUAUCUCAGAUCGAAUACAUACCGCCGGCCGGCUAAAACAGAAGAGUCUUCCGAACCCGUGCAACUCCAGUGAAAUUUUUUAUGUACAGGACAUCUGCAGUUUAUAAAGAAUUCUGUCAACAGAGGAUUGAGCAUCA
B3: chr1:178479239:178479534:-|three_prime_utr|ENSG00000188585|control|control|control (ssRNA)
RNA: GGGAGUUCUACAGUCCGACGAUCCAGUUUCUGUUUCAUGCAAUCUUCUCUGGAUUUUGAGUAAAUUUUAAUUUUUUAAUCCCUAGUAGAACAAGAUUAGGAAGAACUCGACAUGUGCCAAAAAGCACAGACCUACAACUAACACAACAGAGGAUUGAGCAUCA
B4: chr10:92050442:92050545:-|3pUTR|ENSG00000107864|unk|FALSE|unique (ssRNA)
RNA: GGGAGUUCUACAGUCCGACGAUCAUGAAGGCCUGCUAGCACUAGCGUGGACAUUUUUCUAGCAUUCACCCUUGGGCUGCAGAUAGUAAUAUAUAAACACACACAAUGAUUGCAAGACUAUGUAAAUCUUUUUUUAAUCUUCUUCAACAGAGGAUUGAGCAUCA
B5: chr16:785952:786377:-|CDS|ENSG00000007376|control|control|control (ssRNA)
RNA: GGGAGUUCUACAGUCCGACGAUCCAGUCGCUGGACCAGCUCGUGCAGGCCUUACGGGCCACCCCCGACCCUGACCCCGAGGAUAGGGGCCCCAGGCCAGGCAGCCCCUCCGCACUCCUGCCUGGGCCCGGCCGGCCUCCUCCACAACAGAGGAUUGAGCAUCA
B6: chr3:75729960:75730612:-|three_prime_utr|ENSG00000227124|control|control|control (ssRNA)
RNA: GGGAGUUCUACAGUCCGACGAUCACUUCUGGCCAUCAUAUUGUUCUUUUAUUUUUCCAAAUUUCACAUCACCAGUAACAAACUAGCUGUGAUCAUGGCAGAUAGCCUGGAAAUAAAACUCCCCUUUUUACCCUUUGCACAGCACAACAGAGGAUUGAGCAUCA
B7: chr11:119045269:119045370:-|3pUTR|ENSG00000149428|msi1|FALSE|unique (ssRNA)
RNA: GGGAGUUCUACAGUCCGACGAUCUGUGGUUAAAAAUGGAAACUGUUCUCCUCCCCAGCCCCACUCCCUGUUCCCUACCCAUAUAGGCCCUAAAUUUGGGAAAAAUCACUAUUAAUUUCUGAAUCCUUUGCCUGUGGGUAGGAACAACAGAGGAUUGAGCAUCA
B8: chr7:151349087:151349194:+|CDS|ENSG00000013374|unk|total|mutant (ssRNA)
RNA: GGGAGUUCUACAGUCCGACGAUCCCUUGCUAAGCAGUACUCUGACAGACCCGAAUGCUGUGAAAAUGAAGCCGAAAAGGUAACCGAAGAAAUACGUUGCAAGGCAAUUGAGCGUGGAACAGGAAAUGACAAUUACCGAACAACCAACAGAGGAUUGAGCAUCA
B9: chr8:88032264:88032379:-|3pUTR|ENSG00000156103|unk|FALSE|bound_elsewhere (ssRNA)
RNA: GGGAGUUCUACAGUCCGACGAUCACUCCUUAUAAUGUUGCGUCAUUAAAGGUCAAGGGGUCAUGCUAUUAAUCUCAUUGCUAUAGACCAUUAACAUGACUGAACUUUUCCACAAAGUACUUAUGUUUACAAUGCUAUAACCCUCAACAGAGGAUUGAGCAUCA
B10: chr3:98797769:98798349:-|3pUTR|ENSG00000057019|msi1|FALSE|unique (ssRNA)
RNA: GGGAGUUCUACAGUCCGACGAUCUUGUUUUUGAUACCUCCUGGCAGCUUCCAUGUCACCACUUGUUCAUACCUGCCCAGAGCUAGUUUUAGACAUGGCAAAAUAGAAAUCAUCUGUAAUUUAUUAGCUAACAAUGUAAAACCACAACAGAGGAUUGAGCAUCA
B11: chr2:112646914:112647020:+|CDS|ENSG00000144136|unk|total|mutant (ssRNA)
RNA: GGGAGUUCUACAGUCCGACGAUCGCUCAUCCUGGGCUUCAUUAUUGCAUUUGUCUUGGCAUUCUCCGUGGGAGCCAAUGAUGCCGCAAAUUCUUUUGGUACAGCUGUGGGCUCAGGUGCCGUGACCCUGAAGCAAGCCUGCAUCAACAGAGGAUUGAGCAUCA
B12: chr9:136116483:136116900:-|CDS|ENSG00000238227|control|control|control (ssRNA)
RNA: GGGAGUUCUACAGUCCGACGAUCUUCGACGUGUACAUCAAGACGCGCUGGCUGUACGGCUUCAUCCGCUUCCUACUCUACUUUAGCUGCAGCCUGUUCACUGCGGCGCUCUGGGGUGCGCUGGCCGCCCUCUUCUGCCUACAGCAACAGAGGAUUGAGCAUCA
B13: chr17:7656804:7656905:+|3pUTR|ENSG00000129244|unk|total|mutant (ssRNA)
RNA: GGGAGUUCUACAGUCCGACGAUCGCAUGUGCCACCAUGCCCGGCUAAUUUCUUUCUUUCUUUUUUUUUUUUUUUGCAUUUUUCCGCCGAGAUGGGGGUUUCUCCUUGUUGGUCAGGCUGGUCUCGAACUCCCGACCUCAGGUGCAACAGAGGAUUGAGCAUCA
B14: chr9:74692981:74693082:+|3pUTR|ENSG00000198963|unk|total|mutant (ssRNA)
RNA: GGGAGUUCUACAGUCCGACGAUCUUUUAUAUUACUUCCGAAUGUAACCGGUUUUUGUCCUUAUUUUAUGUCCUGUAAAUUAUCCGUUCAAUACUGUCCGCAUUCCCGGAUAAUGCACACAUGAUUUCUGAAUGUUUUCUGUAACAACAGAGGAUUGAGCAUCA

What follows are binders tested against T1, UNK ZnF1-6 (called full-length) (assay: nsRBNS (natural sequence RNA bind-n-seq); RBNS binding buffer (assumed for nsRBNS): 25 mM Tris pH 7.5, 150 mM KCl, 3 mM MgCl2, 0.01% Triton X-100, 500 ug/ml BSA, 20 U/ml SUPERase-In, 4 C; UNK is unkempt and MSI1 is Musashi-1; names of the RNAs are library labels; protein concentration not given here; high values mean tight binding).

**Q.** Which binding signal does the source give for B1 here?
**A.** Its binding signal is 11.1 enrichment R.

**Q.** For B2, which binding signal is on record?
**A.** The binding signal was 0.524 enrichment R.

**Q.** B3 was tested. Which binding signal did it give?
**A.** Its binding signal is 0.449 enrichment R.

**Q.** How did the binding signal turn out when B4 was run?
**A.** The binding signal was 3.34 enrichment R.

**Q.** How did the binding signal turn out when B5 was run?
**A.** The binding signal was 0.526 enrichment R.

**Q.** Which binding signal does the source give for B6 here?
**A.** Its binding signal is 0.746 enrichment R.

**Q.** How did the binding signal turn out when B7 was run?
**A.** Its binding signal is 0.528 enrichment R.

**Q.** With B8 as the binder, how does the binding signal read?
**A.** Its binding signal is 0.354 enrichment R.

**Q.** B9 was tested. Which binding signal did it give?
**A.** Its binding signal is 0.449 enrichment R.

**Q.** B10 was tested. Which binding signal did it give?
**A.** The binding signal was 4.74 enrichment R.

**Q.** With B11 as the binder, how does the binding signal read?
**A.** The binding signal was 0.77 enrichment R.

**Q.** With B12 as the binder, how does the binding signal read?
**A.** Its binding signal is 0.684 enrichment R.

**Q.** For B13, which binding signal is on record?
**A.** Its binding signal is 3.94 enrichment R.

**Q.** How did the binding signal turn out when B14 was run?
**A.** Its binding signal is 0.468 enrichment R.
